# Data taken from PubChem BioAssay AID485281 (National Center for Advancing Translational Sciences (NCATS), 2010).
# Out of some 350,000 compounds screened, about 260 (0.074%) were called active. Inconclusive means that the source gave no clear call. Such entries were picked first, then a sample of the others. Calls follow the shape of the dose curve; as a rule, active = well fitted inhibition curve with a large enough effect; inconclusive = small, poorly fitted or top-dose-only effect; inactive = no such curve, though single readings can be large or run the other way. Potencies beside an inconclusive call are fits to weak or partial responses and may not hold up.
# Molecular target: Ferritin light chain (Equus caballus) (UniProt P02791)
# Experiment: qHTS Assay for Identification of Novel General Anesthetics; also: nearly all actives have a fitted effect of over 20% in size
# Settings: apoferritin/1-aminoanthracene competitive binding, fluorescence; activity change, negative = displacement: at 77.5 µM (top of the series)
# Outline: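 Apoferritin-based anesthetic binding model; compound displacement of fluorescent 1-AMA measured as endpoint fluorescence after 10 minutes at room temperature, scaled to free-ligand and complex controls.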
# % is scaled to controls: 0 for no effect and ±100 for the full control effect; potency is read from the fitted curve at half-maximal effect; tags tell the direction and shape of the fitted curve.
# Sequence of UniProt P02791 (P02791 whole entry, looked up): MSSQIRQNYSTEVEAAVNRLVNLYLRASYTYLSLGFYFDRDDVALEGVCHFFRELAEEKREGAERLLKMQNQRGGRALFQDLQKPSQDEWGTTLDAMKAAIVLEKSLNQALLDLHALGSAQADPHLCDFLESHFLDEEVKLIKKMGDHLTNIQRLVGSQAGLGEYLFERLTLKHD
Compound,Potency,"activity change, negative = displacement"
O=C(NCCCNc1ccc([N+](=O)[O-])cc1Cl)c1ccccc1F,"inconclusive: 31.6 µM [inhibitor, partial curve]",–
C=CCn1c(=O)n(CCOC)c(=O)c2sc3ccccc3c21,–,inactive: 2.56%
CCOC(=O)CN1C(=O)S/C(=C/c2ccc(C)o2)C1=O,"inconclusive: 20 µM [inhibitor, partial curve]",–
COc1cccc(-n2nnc3c(=O)n(CC(=O)N4CCC(Cc5ccccc5)CC4)cnc32)c1,"inconclusive: 31.6 µM [inhibitor, partial curve]",–
Cc1nc(-c2cccnc2)sc1C(=O)Nc1cccc(C(F)(F)F)c1,"inconclusive: 44.7 µM [inhibitor, single point]",–
COc1ccc(OCC(=O)NC2CCCCCCC2)cc1,"inconclusive: 39.8 µM [inhibitor, single point]",–
O=C(CCNc1ccc(Cc2ccncc2)cc1)c1cccc([N+](=O)[O-])c1,"inconclusive: 35.5 µM [inhibitor, partial curve]",–
O=C(Nc1ccc(SC(F)F)cc1)C12CCC(CC1)C2,"inconclusive: 50.1 µM [inhibitor, single point]",–
CCOC(=O)Nc1c(O)ccc2oc(C)c(-c3ccccc3)c12,"inconclusive: 17.8 µM [inhibitor, partial curve]",–
COc1cc(CNc2ccc3[nH]c(=O)[nH]c3c2)ccc1OCc1ccc(F)cc1,"inconclusive: 22.4 µM [inhibitor, partial curve]",–
O=C(CCC(=O)NC1CCCCCCC1)Nc1nnc(C(F)(F)F)s1,"inconclusive: 20 µM [inhibitor, partial curve, poor fit]",–
CCC(C)(C)NC(=O)C(c1cccc(OC)c1OC)N(Cc1ccccc1)C(=O)CCC(=O)Nc1cc(C)on1 (stereo not drawn),"inconclusive: 56.2 µM [inhibitor, single point]",–
CC1CCN(C(=S)c2cccc([N+](=O)[O-])c2)CC1,"inconclusive: 17.8 µM [inhibitor, partial curve]",–
CCOC(=O)c1c(NC(=O)/C=C/C(=O)O)sc(C)c1-c1ccc(C)c(C)c1,–,inactive: -14.9%
CCOc1cc(CN2CCN(c3ccc(C(C)=O)cc3)CC2)ccc1OC,–,inactive: -4.2%
COc1ccc(/C(C)=C2/SC(=S)N(CCC(=O)O)C2=O)cc1,"inconclusive: 31.6 µM [inhibitor, partial curve]",–
C(=N\n1cnnc1)/c1ccc(OCc2cccc3ccccc23)cc1,"inconclusive: 22.4 µM [inhibitor, partial curve]",–
CC(NC(=O)CSc1nnc(COc2ccccc2)o1)c1ccccc1 (stereo not drawn),"inconclusive: 35.5 µM [inhibitor, partial curve]",–
CCCOc1ccc(CN(C(=O)c2nc(SC(C)C)ncc2Cl)C2CCS(=O)(=O)C2)cc1 (stereo not drawn),"inconclusive: 12.6 µM [inhibitor, partial curve]",–
CCOc1ccc(/C=C/c2nc(C#N)c(Nc3ccc(OC)cc3)o2)cc1,–,inactive: 0.198%
O=C1CCCCCN1Cc1ccccc1,"inconclusive: 22.4 µM [inhibitor, partial curve]",–
Cc1ccc(OCCNC(=O)/C=C/c2ccccc2)cc1,"inconclusive: 56.2 µM [inhibitor, single point]",–
CC(C)(C)c1ccc(C(=O)C2CCCN(C(=O)c3ccccn3)C2)cc1 (stereo not drawn),"inconclusive: 31.6 µM [inhibitor, partial curve]",–

Compound,Potency,"activity change, negative = displacement"
CCOC(=O)c1sc(Nc2ccc(Br)cc2)nc1C,"inconclusive: 50.1 µM [inhibitor, single point]",–
O=C1c2cccc3c([N+](=O)[O-])ccc(c23)C(=O)N1c1ccc(Cl)cn1,–,inactive: -13.1%
Cc1cc(C(=O)N=Nc2c(O)n(C(C)C)c3ccccc23)n[nH]1,"inconclusive: 35.5 µM [inhibitor, partial curve]",–
Fc1ccc(-c2nnc(-c3ccc(Cl)cc3)o2)cc1,–,inactive: -9.46%
Cn1c(=O)c2c(nc(CN3CCc4ccccc4C3)n2Cc2ccccc2F)n(C)c1=O,"inconclusive: 12.6 µM [inhibitor, partial curve]",–
CC(Nc1ccc(Br)cn1)c1cc(Cl)ccc1O (stereo not drawn),"inconclusive: 44.7 µM [inhibitor, single point]",–
Cc1cc(Nc2ccccc2)n(C(=O)c2ccccc2)n1,"inconclusive: 28.2 µM [inhibitor, single point]",–
O=C(CSc1nnc(-c2cnccn2)n1Cc1ccco1)c1ccc2ccccc2c1,"inconclusive: 11.2 µM [inhibitor, partial curve]",–
CCOc1ccc(NC(=O)COC(=O)COc2cccc3c2OC(C)(C)C3)cc1,"inconclusive: 28.2 µM [inhibitor, partial curve]",–
Cc1ccc(Oc2ccc(NC(=O)Cn3ccsc3=N)cc2)cc1,active: 12.6 µM,–
Cc1nn2c(NCc3ccccn3)cc(C(C)(C)C)nc2c1-c1ccccc1,–,inactive: -4.27%
Cc1nc(-c2ccc3c(c2)OCCO3)cs1,"inconclusive: 31.6 µM [inhibitor, partial curve]",–
O=C(Nc1cccc(F)c1)c1ccc(-c2ccccc2C(F)(F)F)o1,"inconclusive: 35.5 µM [inhibitor, partial curve]",–
COc1ccc(NS(=O)(=O)c2ccc3oc(Nc4ccc5c(c4)OCCO5)nc3c2)cc1,–,inactive: 0.442%
O=C(CSC1=NCCN1)NC12CC3CC(CC(C3)C1)C2,"inconclusive: 31.6 µM [inhibitor, partial curve]",–
CSc1nc2ccc(N3C(=O)C4CCCCC4C3=O)cc2s1 (stereo not drawn),"inconclusive: 31.6 µM [inhibitor, partial curve]",–
CCOC(=O)C(=O)Nc1c(C(=O)Nc2cccc(F)c2)oc2ccccc12,"inconclusive: 11.2 µM [inhibitor, single point]",–
CC(C)C(=O)Nc1nnc(SCC(=O)N2c3ccccc3CC2C)s1 (stereo not drawn),"inconclusive: 35.5 µM [inhibitor, partial curve]",–
Cc1ccc(SC(C)C(=O)NC(N)=O)c(C)c1 (stereo not drawn),"inconclusive: 31.6 µM [inhibitor, partial curve]",–
COc1ccc(CNC(=O)c2cc(-c3ccc(C)c(C)c3)n[nH]2)cc1,"inconclusive: 22.4 µM [inhibitor, partial curve]",–
O=C(/C=C/c1ccc(O)c(O)c1)c1ccccc1O,"inconclusive: 50.1 µM [inhibitor, single point]",–
CCOC(=O)c1sc(NC(=O)Cc2ccc(C)cc2)nc1C,"inconclusive: 22.4 µM [inhibitor, single point]",–
Cc1c([N+](=O)[O-])nnn1-c1cc(Cl)cc(Cl)c1,–,inactive: -12.8%

Compound,Potency,"activity change, negative = displacement"
N#Cc1c(C(F)(F)F)cc(-c2ccccc2)[nH]c1=O,–,inactive: 107%
COc1ccc(OCC(=O)Nc2ccc(S(=O)(=O)N3CCCCC3)cc2)cc1,"inconclusive: 39.8 µM [inhibitor, single point]",–
Brc1ccccc1C1N=C(c2ccccc2)NO1 (stereo not drawn),"inconclusive: 56.2 µM [inhibitor, single point]",–
COC(=O)CCSc1cc([N+](=O)[O-])cc2c1c(C1OCCS1)nn2-c1ccccc1 (stereo not drawn),"inconclusive: 22.4 µM [inhibitor, partial curve]",–
CC(Cc1cccnc1)NC(=O)c1cc(COc2ccc(F)cc2Cl)on1 (stereo not drawn),"inconclusive: 39.8 µM [inhibitor, partial curve]",–
CC1=NN(c2ccc(Br)cc2)C(=O)/C1=C/c1cccs1,"inconclusive: 5.62 µM [inhibitor, full curve, poor fit]",–
Cn1c(=O)c2cc(S(=O)(=O)NCCC(=O)NC3CCCCCCC3)ccc2n(C)c1=O,"inconclusive: 25.1 µM [inhibitor, partial curve]",–
COc1cc(/C=N/Nc2ccc(C)cc2)cc(Br)c1O,"inconclusive: 44.7 µM [inhibitor, single point]",–
COc1ccc(-c2nc(C#N)c(NCc3ccc(C)cc3)o2)cc1OC,–,inactive: 3.56%
Cc1oc(-c2cccc(F)c2)nc1CN1CCCN(C(=O)c2ccco2)CC1,–,inactive: -17.1%
Cc1ccc(NC(=O)COC(=O)CNC(=O)c2cccc([N+](=O)[O-])c2)cc1S(=O)(=O)N1CCCCCC1,"inconclusive: 31.6 µM [inhibitor, partial curve]",–
O=[N+]([O-])c1ccccc1Nc1nc(-c2cccnc2)cs1,"inconclusive: 39.8 µM [inhibitor, partial curve]",–
Cc1ccc(C=Nc2ccccc2C(=O)Nc2ccccc2)cc1,–,inactive: 129%
CCCCN(C)C(=O)c1cc2c(Cl)nc3ccccc3c2s1,"inconclusive: 31.6 µM [inhibitor, single point]",–
Cc1ccc2c(c1)NC(=O)C(N1CCOCC1)(C(F)(F)F)O2 (stereo not drawn),"inconclusive: 31.6 µM [inhibitor, partial curve]",–
O=C(CNS(=O)(=O)c1ccc(Br)cc1)NCc1cccnc1,–,inactive: -2.07%
CC(C)C(NC(=O)c1ccccc1)C(=O)NCc1ccccn1 (stereo not drawn),–,inactive: 4.65%
COc1ccccc1/C=N/NC(=O)CC(=O)NCc1ccccc1,"inconclusive: 11.2 µM [inhibitor, partial curve]",–
O=C(Nc1ccc(-c2nnc3n2CCCCC3)cc1)c1cc2ccccc2o1,"inconclusive: 35.5 µM [inhibitor, single point]",–
CCN(CC)c1ccc(/C=N/n2c(C)cc(C)cc2=O)cc1,"inconclusive: 56.2 µM [inhibitor, single point]",–
Cc1cc(OCC(F)(F)C(F)(F)C(F)(F)C(F)F)nc(N)n1,"inconclusive: 11.2 µM [inhibitor, partial curve]",–
COc1cccc(/C=N/Nc2cc(-n3nc(C)cc3-c3ccccc3)ncn2)c1O,"inconclusive: 50.1 µM [inhibitor, single point]",–
